The source of these data is ChEMBL document CHEMBL5308541, “MAIP: An Open-Source Tool to Enrich High-Throughput Screening Output and Identify Novel, Druglike Molecules with Antimalarial Activity” (ACS Med Chem Lett, 2023).

The campaign covered roughly 150,000 compounds. About 540 (0.36%) showed an effect of 50% or more. The list shows a part of the results. Residues, ends and D or L forms follow the SMILES beside them. *: point of attachment. Propionyl = CCC(=O)*

As usually defined, the % Inhibition is the change of the read-out against control, counted positive when it falls.

The test system of this assay is Plasmodium falciparum. The experiment in a line: Primary screen in NF54 nanoGlo assay, in single point, at 2uM, 72h; a lower Z score goes with more inhibition. Type of assay: functional, Erythrocyte. The conditions noted are these: timepoint 72 hour.
`CCOc1cccc2cc(C(=O)Nc3ccccc3-c3nc4ccccc4[nH]3)oc12`: the “% Inhibition” value is -7% and the Z score is on record as 1.12.
Take `O=C(c1ccnc2ccccc12)N(Cc1cc2ccccc2o1)Cc1ccccc1-c1ccccc1`: the “% Inhibition” value is reported as -1% and the Z score is 0.16.
For `CCC(=O)NCC(=O)N[C@@H](C)C(=O)NC` (Propionyl-Gly-Ala-NHMe), the “% Inhibition” value was -9% and the Z score is listed as 1.55.
`CNC(=O)[C@H](Cc1c[nH]c2ccccc12)NC(=O)Nc1cccc2cnccc12`: the “% Inhibition” value is given as -3% and the Z score is given as 0.55.
`CCn1ccnc(N2CCC(NCc3cc(-c4ccccc4)ccc3OC)CC2)c1=O`: the “% Inhibition” value was determined as 1% and the Z score is given as -0.25.
Regarding `Cn1nc(CNc2nc(N)nc3c2CCNCC3)c2c(Cl)cccc21`, the “% Inhibition” value came out at 4% and the Z score is given as -0.65.
The corresponding values for `c1ccc(-c2ncn(Cc3cc(C4CC4)[nH]n3)c2-c2ccoc2)cc1` are -2% and 0.35.
For the molecule `CN(C(=O)C[C@H](n1cccn1)C(F)(F)F)c1ncc(Br)cn1`, the “% Inhibition” value was determined as 9% and the Z score is given as -2.02.
For the molecule `CCCCc1nc(CNCCCc2nc3cc(Cl)ccc3[nH]2)c[nH]1`, the “% Inhibition” value was determined as 0% and the Z score is reported as -0.03.
`c1ccc(-c2nc(N3CCC(c4ncc[nH]4)CC3)c3ccccc3n2)cc1`: the “% Inhibition” value is 4% and the Z score is recorded as -0.96.
`CN1CCN(C2CN(C(=O)Nc3cccc(-c4c[nH]cn4)c3)CC2O)CC1` (stereo not given): the “% Inhibition” value was -12% and the Z score is reported as 2.11.
Regarding `OCCOCCCNc1ncc(Cl)c(NCCCOCCO)n1`, the “% Inhibition” value was determined as 7% and the Z score is recorded as -1.37.
Take `C[C@H]1CN(c2ccc(CNCc3nc(-c4cnn(C)c4)cs3)cn2)CCO1`: the “% Inhibition” value is given as -8% and the Z score came to 1.76.
With `COc1ccc2cc([C@@H]3CN(c4ncnc5[nH]cnc45)CCO3)ccc2c1`, the “% Inhibition” value is on record as 2% and the Z score is on record as -0.24.
Consider `FC(F)(F)CN1CCC(CNc2ncnc3ccncc23)CC1`, for which the “% Inhibition” value is -7% and the Z score came out at 1.54.
Regarding `CCNC(=O)c1cc(=O)c2cc(Br)ccc2[nH]1`, the “% Inhibition” value is -3% and the Z score amounted to 0.41.
For `O=C(Nc1cccc(-n2cccn2)c1)[C@H]1CCCN(C2CCN(Cc3ccco3)CC2)C1`, the “% Inhibition” value is on record as -1% and the Z score was 0.12.
Taken in the same sequence, the figures for `O=C1C[C@H](c2ccc(C(F)(F)F)cc2)c2c(Nc3ccccc3)n[nH]c2N1` were 10% and -1.73.
`Clc1ccc(-c2nc(COc3ccc4ncccc4c3)co2)cc1`: the “% Inhibition” value is reported as 3% and the Z score is given as -0.61.
Turning to `CCn1cc(CN2CCN(C(=O)c3cc(-c4ccc(OC(F)F)cc4)[nH]n3)CC2)c(C)n1`, the “% Inhibition” value came out at 6% and the Z score is -0.97.
As to `CCOc1ccc(Nc2nc(-c3cn4ncc(-c5ccccc5)c4nc3C)ns2)cc1`, the “% Inhibition” value is on record as -4% and the Z score is recorded as 0.75.
Regarding `NC(=O)CN1CCc2ccc(NC(=O)c3cc(-c4ccc(F)cc4)[nH]n3)cc2C1`, the “% Inhibition” value is listed as -9% and the Z score came to 1.7.
For `C[C@H]1C[C@@H](c2nc(-c3ccnc(OCCN(C)C)c3)no2)CCN1C`, the “% Inhibition” value was determined as 2% and the Z score was -0.3.
Regarding `COC[C@@H](O)CNC(c1cc(F)c(F)c(F)c1)c1cc(F)c(F)c(F)c1`, the “% Inhibition” value is 3% and the Z score is -0.53.
Turning to `O=C(N[C@@H](Cc1ccccc1)CN1CCOCC1)c1cc(F)cc2nc[nH]c12`, the “% Inhibition” value is given as -1% and the Z score came out at 0.17.
For the molecule `O=C(c1cncc(NCC[C@H]2CCCCN2C2CCCC2)n1)N1CCOCC1`, the “% Inhibition” value is listed as -4% and the Z score is given as 0.71.
Take `COc1cc2c(cc1CN(C)Cc1ccnc3ccccc13)OCO2`: the “% Inhibition” value was -5% and the Z score is 1.09.
Regarding `O=C(Nc1ccccc1Cl)c1ccccc1Nc1ncc(-c2ccc(Cl)cc2)s1`, the “% Inhibition” value is on record as -10% and the Z score is reported as 1.58.
Regarding `COc1cnc(CN2CC3CN(C4CCCC4)CC3(C(=O)O)C2)cc1O` (stereo not given), the “% Inhibition” value is recorded as 3% and the Z score is -0.47.
For `COc1ccc(-c2cccc(C(=O)N3CCNCC3)c2)cc1C(F)(F)F`, the “% Inhibition” value is reported as -6% and the Z score is 1.34.
Take `CCN1CCN([C@H]2CCN(c3ccnc4ccncc34)C2)CC1`: the “% Inhibition” value turned out to be 96% and the Z score is recorded as -14.59.
The corresponding values for `Cc1cc(N2CCC[C@H](Nc3ncnc4cc(Cl)ccc34)C2)n(C)n1` are -20% and 3.45.
Turning to `CCc1noc(CCN[C@@H](C)CS(C)(=O)=O)n1`, the “% Inhibition” value is -1% and the Z score is given as 0.12.
In the case of `FC(F)(F)Cn1cnc([C@@H]2COCCN2c2ncnc3sc(-c4ccccc4)cc23)n1`, the “% Inhibition” value is -14% and the Z score came out at 2.09.
Consider `Cc1cc(=O)n(CCN2CCN(C(=O)c3ccc[nH]3)CC2)c(=O)[nH]1`, for which the “% Inhibition” value is reported as -9% and the Z score is on record as 1.92.
Regarding `CN(CC(=O)N[C@H]1CCCN(c2cnccn2)C1)C1CCNCC1`, the “% Inhibition” value is on record as -7% and the Z score came out at 1.05.
Regarding `Nc1nccc(C2CCN(c3ncnc4cc(F)ccc34)CC2)n1`, the “% Inhibition” value was -8% and the Z score was determined as 1.69.
Turning to `Cc1cnccc1NCCNC(=O)[C@]1(C)CCc2c(C)c(O)c(C)c(C)c2O1`, the “% Inhibition” value worked out at 1% and the Z score is reported as -0.24.
In the case of `O=C(CN1CCN(c2ncnc3sccc23)CC1)N1CCN(Cc2c(F)cccc2Cl)CC1`, the “% Inhibition” value is -9% and the Z score amounted to 1.33.
Consider `Cc1sc2ncnc(Nc3cccc(C(F)(F)F)c3)c2c1-c1ccc(Cl)cc1`, for which the “% Inhibition” value was -9% and the Z score is on record as 1.35.
Regarding `CC1(NC(=O)Nc2ccnc(OCC(F)(F)F)c2)CCOCC1`, the “% Inhibition” value is -9% and the Z score is recorded as 1.42.
As to `COc1ccccc1Nc1nn(CN(CCN(C)C)Cc2ccc(C#N)cc2)c(=S)s1`, the “% Inhibition” value is recorded as -10% and the Z score is 1.64.
As for `COC1CS(=O)(=O)CC1NC(C)c1nccc2ccccc12` (stereo not given), the “% Inhibition” value is 1% and the Z score is on record as -0.21.
On to `Cc1cc2c(N3CC(Nc4nc(C)nc(C)c4F)C3)nccn2n1`, for which the “% Inhibition” value is -2% and the Z score is reported as 0.52.
As to `CN(Cc1cn(CC(N)=O)c2ccccc12)CC1CCN(CCc2ccc(F)cc2)CC1`, the “% Inhibition” value is listed as 27% and the Z score was -4.71.
Consider `Cn1cc(-c2cc(CN3CC[C@H](CNc4ccccn4)C3)on2)cn1`, for which the “% Inhibition” value is reported as 8% and the Z score was -1.68.
As for `c1ccc(-c2ncn(CC3CCNCC3)c2-c2ccc(-c3ccn[nH]3)o2)cc1`, the “% Inhibition” value is 4% and the Z score is -0.59.
Regarding `OC1(c2cccc(OC(F)(F)F)c2)CCN(Cc2ccc3cn[nH]c3c2)CC1`, the “% Inhibition” value is reported as -2% and the Z score stood at 0.38.
For `O[C@@H](CNCc1csc(-c2cccs2)n1)c1cccc(F)c1`, the “% Inhibition” value came to 7% and the Z score is -1.05.
`c1cc(OCCN2CCOCC2)ccc1CN1CCCN(C2CCCC2)CC1`: the “% Inhibition” value stood at 2% and the Z score is listed as -0.35.
With `Fc1cccc(Cl)c1CCNC1CCN(CC2CC2)CC1`, the “% Inhibition” value is recorded as -2% and the Z score was 0.36.
As for `Cc1ccc(-c2cc(C(=O)NC3CCN(C4CCN(C)CC4)CC3)n[nH]2)cc1C`, the “% Inhibition” value stood at 95% and the Z score is listed as -16.77.
Regarding `Cn1c(N2CC[C@H](Oc3ccccc3Cl)C2)cc(=O)n(C)c1=O`, the “% Inhibition” value was -2% and the Z score stood at 0.31.
Turning to `O=C(NCCn1cccn1)c1ccc(-c2cccc(N3CCNCC3)c2)cc1`, the “% Inhibition” value came out at 1% and the Z score was -0.21.
On to `CN[C@H](C(=O)N[C@H]1C[C@@](O)(C(=O)N[C@H](Cc2c[nH]c3ccccc23)C(N)=O)C[C@@H](O)[C@@H]1O)C(C)C`, for which the “% Inhibition” value is -9% and the Z score is reported as 1.29.
For `CC(C)[C@H](NC(=O)c1cc(F)cc2cccnc12)C(=O)N1CCOCC1`, the “% Inhibition” value was determined as 2% and the Z score is reported as -0.36.
For `Cc1nnnn1Cc1ccc(C(=O)NCc2nc(-c3cnccn3)n[nH]2)cc1`, the “% Inhibition” value is reported as -5% and the Z score is given as 0.86.
Regarding `CC(=C(F)C(=O)N1CCC(O)(c2c[nH]nn2)CC1)C1CC1`, the “% Inhibition” value is -8% and the Z score was determined as 1.79.
Consider `Cc1ccc2cc(CNC[C@H]3CCN(C4CC4)C3)ccc2n1`, for which the “% Inhibition” value was 0% and the Z score is recorded as 0.09.
Consider `Cc1noc([C@H]2C[C@H](CNC3CCN(c4ccncc4)CC3)[C@H](O)C2)n1`, for which the “% Inhibition” value came out at 5% and the Z score was -1.06.
With `O=c1[nH]ccnc1N1CCC[C@H](NCc2ccccc2N2CCOCC2)C1`, the “% Inhibition” value amounted to 0% and the Z score is -0.1.
In the case of `COCc1cc(C[C@H]2CNCC[C@H]2CC(=O)N2CCC(n3c(=O)[nH]c4ccccc43)CC2)no1`, the “% Inhibition” value was -7% and the Z score stood at 1.
The corresponding values for `Cc1cccc(C(=O)NC(C)C(=O)N2CCC(C)C(n3ccnc3)C2)c1` (stereo not given) are -10% and 1.75.
As to `Cc1cc(CC2CN(C(=O)c3ccc(-c4noc(C5CC5)n4)cc3)CC2O)[nH]n1` (stereo not given), the “% Inhibition” value came to 1% and the Z score is -0.17.
With `CCC(CC)NS(=O)(=O)c1ccc(NCc2ccc(N3CCN(C)CC3)nc2)nc1`, the “% Inhibition” value was determined as 6% and the Z score is given as -0.95.
Take `Clc1cc(Cl)cc(-c2nnc3ccc(NCCc4nnc[nH]4)nn23)c1`: the “% Inhibition” value is -1% and the Z score was 0.23.
Taken in the same sequence, the figures for `Cn1cncc1CNC1CCN(Cc2ccc(F)c(F)c2)CC1` were -3% and 0.48.
On to `Cc1cc(Oc2cc(Cl)ccc2CNc2cc(C(N)=O)ncn2)ccc1Cl`, for which the “% Inhibition” value is on record as 4% and the Z score is -0.79.
Consider `O=c1c(CNCCc2c[nH]c3ccccc23)cc2cc3c(cc2n1CCN1CCCCC1)OCO3`, for which the “% Inhibition” value amounted to 8% and the Z score is on record as -1.46.
Consider `CCC(CC)C(=O)N1CCC(NC2CCCC2C2CCCN2C(=O)OC(C)(C)C)CC1` (stereo not given), for which the “% Inhibition” value is listed as -3% and the Z score is 0.69.
For `Cc1ccc(C2CCN(C(=O)c3nccc4cccnc34)CC2)cn1`, the “% Inhibition” value is -6% and the Z score came out at 1.26.
In the case of `Cc1cc(C)cc(N2C(N)=NC(N)=N[C@H]2c2ccccc2F)c1`, the “% Inhibition” value was -1% and the Z score was found to be 0.11.
For the molecule `CN1CCC(Oc2ccc(NC(=O)c3cn4ccnc4s3)cn2)CC1`, the “% Inhibition” value came out at 90% and the Z score is -15.87.
As for `O=C(Nc1ccc2[nH]ncc2c1)NC1COCC1N1CCCCC1` (stereo not given), the “% Inhibition” value is reported as -1% and the Z score came out at 0.22.
For the molecule `Cc1nccc(-c2cccc(N3CCC(N[C@H]4CC(=O)N(C)C4)CC3)c2)n1`, the “% Inhibition” value was -5% and the Z score is recorded as 0.94.
Turning to `COc1c(Cl)cc(Cl)cc1CNCCN1CCN(C)CC1`, the “% Inhibition” value is recorded as -6% and the Z score was 1.02.
The corresponding values for `CCc1cccc(OC2CN(C3CCN(c4cc(C)nc(N)n4)CC3)C2)c1` are -3% and 0.5.
Turning to `CCN1CCC(N2CCC(c3nc(-c4ccsc4)no3)CC2)CC1`, the “% Inhibition” value came to 6% and the Z score is -1.15.
In the case of `CN1CCN(c2ncncc2N2CCC(C(=O)N(C)Cc3ccccc3)CC2)CC1`, the “% Inhibition” value was -3% and the Z score was found to be 0.55.
For `CCCNC(=O)CN(C)C(=O)CN(CCN1CCN(c2cccc(C)c2)CC1)CC1CC1`, the “% Inhibition” value is -3% and the Z score is on record as 0.58.
